Assay results published in PubChem BioAssay AID1159614 (National Center for Advancing Translational Sciences (NCATS), 2016).
The whole screen tested about 45,000 compounds, of which about 65 (0.1%) were called active. Calls come from the whole dose curve; as a rule, active = well fitted activation curve with a large enough effect; inconclusive = small, poorly fitted or top-dose-only effect; inactive = no such curve, though single readings can be large or run the other way. Some of the results follow.

molecular target: Galactocerebrosidase (Homo sapiens) (UniProt P54803); assay: A Novel Cell-Based Assay to Identify Small Molecules for B -Galactocerebrosidase; details: 145M-Twi-hGALC-G270D cells (Twitcher mouse brain line with human GALC G270D), HMU-beta-Gal fluorescence, 48 h; series mostly up to 57.5 µM; activation: at the top concentration; note: 0% is about no effect; nearly all actives have a fitted effect of over 65% in size
In short: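 Fluorescence readout: HMU-β-gal cleavage by mutant GALC (0.1 mM final, citrate/phosphate pH 5.2 with 1 mg/mL taurocholate), stopped with carbonate/bicarbonate plus Triton X-100. Cells: murine Twitcher 145M-Twi expressing human G270D GALC; qHTS for activators.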

UniProt P54803, sequence (P54803 whole entry, looked up): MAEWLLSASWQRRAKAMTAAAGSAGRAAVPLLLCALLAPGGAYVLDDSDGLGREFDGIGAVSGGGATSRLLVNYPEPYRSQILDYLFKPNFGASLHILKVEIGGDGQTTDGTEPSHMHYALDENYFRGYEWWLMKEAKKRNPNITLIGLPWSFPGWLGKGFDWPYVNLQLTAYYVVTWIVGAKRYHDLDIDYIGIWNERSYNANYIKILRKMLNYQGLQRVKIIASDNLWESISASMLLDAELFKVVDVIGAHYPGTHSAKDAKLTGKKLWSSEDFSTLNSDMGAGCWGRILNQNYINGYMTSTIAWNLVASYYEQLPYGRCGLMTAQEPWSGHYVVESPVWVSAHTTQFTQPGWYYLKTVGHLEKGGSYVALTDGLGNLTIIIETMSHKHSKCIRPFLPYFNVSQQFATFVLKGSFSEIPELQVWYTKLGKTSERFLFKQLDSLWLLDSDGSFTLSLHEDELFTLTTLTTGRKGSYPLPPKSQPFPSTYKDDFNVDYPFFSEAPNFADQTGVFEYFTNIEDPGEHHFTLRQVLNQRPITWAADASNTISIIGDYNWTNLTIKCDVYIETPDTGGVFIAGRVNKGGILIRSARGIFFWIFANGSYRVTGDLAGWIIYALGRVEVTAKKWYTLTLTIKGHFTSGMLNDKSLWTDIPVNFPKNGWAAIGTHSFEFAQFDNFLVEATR

activation, inactive:
O=C(CSc1nc2c([nH]c3ccccc32)c(=O)n1-c1cccc(C(F)(F)F)c1)N1CCCC1 -5.08%
CCOC(=O)c1cccc(NC(=O)C2(S(=O)(=O)c3ccc(C)cc3)CC2)c1 -11.1%
Cc1cccc(-c2nnn3c2nc(NCCC(C)C)c2ccccc23)c1 -6.3%
Cc1cc(C)c(NC(=O)Cn2nnc(-c3nc(-c4ccncc4)no3)c2N)c(C)c1 -12%
Cc1cc2c(cc1S(=O)(=O)N1CCC(C(N)=O)CC1)OCC(=O)N2 -7.58%
Cc1ccc(Nc2c(-c3ccc(N4CCOCC4)cc3)nc3ccc(Cl)cn23)cc1 2.45%
CCOc1ccc(C2c3c(oc4ccccc4c3=O)C(=O)N2Cc2ccc3c(c2)OCO3)cc1 (centres undefined) -19.4%
CC(=O)C1=C(c2ccc(C)cc2)N(C(C)=O)n2c(nnc2-c2ccccc2)S1 -18.5%
COc1ccc(S(=O)(=O)NCC(c2ccc(N(C)C)cc2)N2CCCC2)cc1F (centres undefined) -7.97%
CCOc1cccc(C2c3c(oc4ccc(F)cc4c3=O)C(=O)N2CCOC)c1 (centres undefined) -10.6%
CCCNC(=O)C1CCC(Cn2c(=O)c3sccc3n(CC(=O)N3CCCC(C)C3)c2=O)CC1 (centres undefined) -5.91%
Cc1cccc(NC(=O)CN2C(=O)COc3ccc(S(=O)(=O)Nc4ccccc4)cc32)c1C -3.03%
Cc1[nH]c2ccc(C(=O)NCCc3ccccc3Cl)cc2c1C -17%
Cc1ccccc1Cn1cc(NC(=O)c2cc(-c3ccc(Cl)cc3)on2)cn1 -9.2%
Cc1ccc(Cl)cc1N1CCN(S(=O)(=O)c2ccc3oc(=O)c4ncn(C)c4c3c2)CC1 -0.0901%
Cc1cccc(OCC(=O)NCC2(N3CCN(C)CC3)CCCCC2)c1 -15.6%
CCC1CN(C(=O)N2CCC(C(=O)NCc3ccc(C)o3)CC2)c2ccccc2O1 (centres undefined) -13.2%
COc1ccc(Nc2cc(C(=O)NCc3ccccc3)c3ccccc3n2)cc1 2.85%
CCCS(=O)(=O)N1CC(=O)N(c2ccccc2C)C(C)(C(=O)NC2CCCCC2)C1 (centres undefined) -9.98%
Cc1ccc(S(=O)(=O)c2nnn3c2nc(NCc2ccc(F)cc2)c2sccc23)cc1C -16.2%
CC(C)OCCCn1c(=O)c2ccccc2n2c(-c3ccc(F)c(F)c3)nnc12 -23%
CSc1ccc(CNC(=O)CN2C(=O)C3CCCCN3c3ccc(C(=O)N4CCCC4)cc32)cc1 (centres undefined) -17.5%
Cn1ccc2c(OCC(=O)Nc3ccc([N+](=O)[O-])cc3)cccc2c1=O -18.9%
O=S(=O)(NCc1nc2cccnc2n1Cc1ccc(F)cc1)c1ccc(Cl)s1 1.79%
COc1ccc(-c2nc3cc(C(C)C)ccc3o2)cc1NC(=O)c1ccc(C)c(Cl)c1 -23.4%
COC(=O)c1cc2sc(C)cc2n1CC(=O)Nc1cccc(SC)c1 -42.5%
Cc1cccc(OCC(=O)Nc2ccc3oc(-c4ccccc4F)nc3c2)c1 -5.93%
COc1ccc(NC(=O)c2cc(S(=O)(=O)NCCC3=CCCCC3)ccc2F)cc1 -6.97%
FC(F)(F)c1ccc(-c2noc(-c3ccccc3Br)n2)cc1 -17.7%
CCc1ccc(NC(=O)C2CCN(S(=O)(=O)c3c(C)noc3/C=C/c3ccco3)CC2)cc1 -1.76%
CCOC(=O)C1CCN(C(=O)c2ccc3c(c2)sc2nc(-c4ccc(C)cc4)cn23)CC1 4.09%
CCCCCC(=O)N(c1ccc(OCC)cc1)S(=O)(=O)c1ccc2c(c1)n(C)c(=O)n2C -10.6%
Cc1ccc(CCNC(=O)c2ccc(CS(=O)(=O)Cc3cccc(C)c3)o2)cc1 -8.45%
Cc1ccc(NC(=O)Cn2cc3c(n2)CCC(C)C3)cc1C (centres undefined) -9.44%
COc1ccc(Cn2ccc3nc(C)c(C(=O)N4CCN(c5ccccc5F)CC4)cc3c2=O)cc1 -19.2%
Cc1ccccc1C(=O)NC1(C(F)(F)F)N=C(c2ccccc2)N(Cc2ccccc2)C1=O (centres undefined) -25.3%
COc1cccc(-c2cc(C(F)(F)F)n3nc(C)c(-c4ccccc4)c3n2)c1 -4.3%
CCn1ccc2cc(S(=O)(=O)N3CCCN(C(=O)NCC(=O)OC)CC3)ccc21 -15.8%
Cc1cc(C)c(S(=O)(=O)NCc2csc(-c3ccccc3)n2)c(C)c1 -2.95%
Cc1ccc2nc(COc3cccc(NC(=O)c4cccc(Cl)c4)c3)cc(=O)n2c1 -13.3%
CCc1ccccc1N(C)C(=O)c1nn(C)c2c1CSc1ccccc1-2 -4.87%
COC(=O)c1ccc(Oc2nc3c(c(=O)n(C)c(=O)n3C)n2C(C)C)cc1 -6.9%
O=C(COc1ccccc1[N+](=O)[O-])Nc1cc(-c2nc3cc(Cl)ccc3o2)ccc1Cl -17.2%
Cc1ccc2nc(N3CCC(C(=O)NCc4ccc(F)cc4)CC3)[nH]c2c1 -3.92%
CCCCNC(=O)CSc1nc2cc3c(cc2c(=O)n1CCCCCC(=O)NCCc1ccc(OC)c(OC)c1)OCO3 -5.86%
CCC12CN3CC(C)(CN(C1)C3c1c[nH]c3ccc(OC)cc13)C2=O (centres undefined) -17.6%
Cc1ccccc1NC(=O)Cn1c(=O)n(CCC(=O)NCc2ccc3c(c2)OCO3)c(=O)c2sccc21 -5.31%
CC(=O)N1CCc2cc(CNS(=O)(=O)c3ccc(C(C)(C)C)cc3)ccc21 3.26%
O=C1CN(C(=O)c2ccc(S(=O)(=O)N3CCCCC3)cc2)C(c2ccc(F)cc2)c2cc(Br)ccc2N1 (centres undefined) -12.1%
Cc1ccc(OCC(=O)Nc2ccc3nc(SCC(=O)N4CCOCC4)sc3c2)cc1C -8.41%
CCOC(=O)C1CCCN(C(=O)CCS(=O)(=O)c2cc3c(cc2Cl)NC(=O)CO3)C1 (centres undefined) -6.11%
CCC(Sc1nc2cc3c(cc2c(=O)n1CCCC(=O)NCc1ccc(OC)cc1)OCO3)C(=O)NCCCOC (centres undefined) -7.77%
CCN(CC)C(=O)c1sc2c(c1C)c(=O)n(-c1ccc(C)c(C)c1)c(=O)n2Cc1cccc(Cl)c1 -22.1%
Cc1ccc2cccc(NC(=O)c3ccc(C#N)cc3F)c2n1 3.15%
CCCCc1ccc(NS(=O)(=O)c2ccc(N3CCCCS3(=O)=O)cc2)cc1 1.99%
CCOc1ccc(C(=O)c2cn(Cc3ccccc3)c3c(F)cc(F)cc3c2=O)cc1 -37.2%
Cc1ccc(C2C=C(c3ccc(F)cc3)Nc3nc(CCCO)nn32)cc1 (centres undefined) -11.2%
COc1ccc(OC)c(NC(=O)c2cnc(N3CCCC3)nc2C)c1 -13.4%
Cc1nn(-c2ccc(F)cc2)c(-n2cccc2)c1C(=O)N1CCN(c2ccccc2F)CC1 -30.8%
COc1ccccc1CNC(=O)CN(c1ccc(C)cc1)S(=O)(=O)c1c(C)noc1C -10.3%
CC(=O)Nc1ccc(NS(=O)(=O)c2ccc(Cl)s2)cc1 -30.6%
Cc1c(C(=O)Nc2ccc(F)c(F)c2)oc2ccc(S(=O)(=O)N3CCC4(CC3)OCCO4)cc12 -3.72%
O=C(Nc1c(-c2ccc(F)cc2)nc2ccccn12)c1cccc(F)c1 -10.8%
O=C(CN1C(=O)CCc2cc(S(=O)(=O)N3CCOCC3)ccc21)NCc1ccccc1Cl -6.86%
CCCOc1ccc(NC(=O)CC2C(=O)N(c3ccc(C)cc3)C(=O)N2C2CCCC2)cc1 (centres undefined) -23.3%
CCSc1ncc(Cl)c(C(=O)N(Cc2ccccc2)Cc2ccco2)n1 3.95%
CCOC(=O)C1CCCN(S(=O)(=O)c2cc3c(cc2C)NC(=O)CO3)C1 (centres undefined) -13.2%
O=C(NCc1cccc(F)c1)c1ccc2nc(N3CCCCC3)sc2c1 -14.9%
COc1ccc(Cn2c(=O)c3oc4ccccc4c3n(Cc3cccc(F)c3)c2=O)cc1 -5.61%
Cc1ccc(OCC(=O)Nc2ccc3nc(SCC(N)=O)sc3c2)cc1 10.6%
CCSc1nnc2c(n1)OC(c1sccc1C)N(C(C)=O)c1ccccc1-2 (centres undefined) 2.27%
CC1=C(C(=O)Nc2cc(Cl)ccc2C)C(c2ccco2)n2ncnc2N1 (centres undefined) -13.8%
O=C(CSc1nc2c([nH]c3ccccc32)c(=O)n1-c1ccc(F)cc1)NCc1ccco1 3.84%
Cc1c(C)n(C)c2ccc(C(=O)NCCc3ccc(Cl)cc3)cc12 -7.51%
O=C(NCCc1ccc(Cl)cc1)c1ccc2c(c1)N(Cc1c(F)cccc1Cl)C(=O)CS2 -6.19%
COC(=O)c1c(C)oc2ccc(N(C(=O)Oc3ccccc3)S(=O)(=O)c3ccc(C(C)(C)C)cc3)cc12 -5.34%
Cc1ccc(NC(=O)C2CCCN(S(=O)(=O)c3c(C)n[nH]c3C)C2)cc1Cl (centres undefined) 7%
COc1cccc(CNC(=O)CSC2=Nc3ccccc3C3=NC(C)C(=O)N23)c1OC (centres undefined) -10.6%
COc1ccc(-c2noc(N3CCN(c4ccc(C)cc4)C(C)C3)n2)cc1OC (centres undefined) -14.2%
Cc1ccc(CSc2ncc(Cl)c(C(=O)Oc3ccc(F)cc3)n2)cc1 -3.81%
CCOc1ccc(NC(=O)Cn2c(=O)n(CCCC(=O)NCc3ccc4c(c3)OCO4)c(=O)c3ccccc32)cc1 -4.33%
COC(=O)c1sc2cccc(F)c2c1S(=O)(=O)NCc1ccc(Cl)cc1 -12.3%
CCOC(=O)c1c(NC(=O)C(C)Sc2cn(CCNC(=O)c3ccccc3OC)c3ccccc23)sc2c1CCC2 (centres undefined) -22.7%
Cc1ccc(-n2nc3ccc(NC(=O)Cc4ccc(Cl)cc4)cc3n2)cc1 -13.7%
CCOC(=O)COc1ccc(CC)cc1C(=O)c1ccn2nc(-c3ccc(Cl)cc3)cc2n1 -11.6%
O=C(c1ccc2c(c1)N(Cc1ccc(F)cc1)C(=O)c1ccccc1S2(=O)=O)N1CCN(c2ccccn2)CC1 11%
COc1ccccc1CNC(=O)c1cnc2c(-c3ccccc3)c(C)nn2c1C -17.2%
COc1ccccc1N1CCN(CCCNC(=O)c2cnn(-c3ccc(C)c(C)c3)c2C2CCN(C(=O)OC(C)(C)C)CC2)CC1 4.5%
Fc1ccc(-c2cc(C(F)(F)F)nc(NCc3ccccc3)n2)cc1 -15.5%
CCCCS(=O)(=O)c1oc(-c2ccc(F)cc2)nc1S(=O)(=O)c1ccccc1 -20.2%
COc1ccc(CCN2CC(C(=O)NCCc3ccccc3)CC2=O)cc1OC (centres undefined) -23.6%
COc1ccc(OC)c(/C=C(\C#N)c2nc3ccccc3c(=O)[nH]2)c1 -10.6%
O=C(CCC(=O)c1ccccc1)Nc1ccc(F)c(Cl)c1 -15%
Cc1sc2c(c1C)c(=O)n(CCc1ccccc1)c(=O)n2Cc1ccc(F)cc1 -15.1%
